Assay results from the RNAGym collection of RNA variant scans (doi:10.1073/pnas.2313332121).
This sample is rich in variants without activity.

B1: TPR 5TU (parent)
chain: GGAUCUUCUCGAUCUAACAAAAAAGACAAAUCUGCCACAAAGCUUGAGAGCAUCUUCGGAUGCAGAGGCGGCAGCCUUCGGUGGCGCGAUAGCGCCAACGUUCUCAACUAUGACACGCAAAACGCGUGCUCCGUUGAAUGGAGUUUAUCAUG

Variants of: B1
Test: polymerase ribozyme fitness, log enrichment relative to wild type (log ratio); higher = more active; in vitro selection for triplet polymerase activity
How it was run: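 A single round of triplicate in vitro selection, including frozen incubation at −7 °C, was applied to PCR-built, transcribed mutant libraries of each subunit of a heterodimeric triplet polymerase ribozyme. Illumina sequencing of input and output libraries retained genotypes with ≥10 input reads and ≥1 read per output. Fitness is the base-2 logarithm of genotype enrichment divided by wild-type enrichment, from inverse-variance-weighted replicate averages.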

Polymerase ribozyme fitness (log ratio), -2.37:
G50C G117A

Polymerase ribozyme fitness (log ratio), -2.79:
G50C U61A G62U A142C

Polymerase ribozyme fitness (log ratio), 0.257:
G50U

Polymerase ribozyme fitness (log ratio), -3.77:
G50C G83U

Polymerase ribozyme fitness (log ratio), -3.89:
G50C C125U

Polymerase ribozyme fitness (log ratio), -3.17:
G50C U134A

Polymerase ribozyme fitness (log ratio), -3.37:
G50U A122G U148A

Polymerase ribozyme fitness (log ratio), -3.4:
G50U A89U C93U C99U U145A

Polymerase ribozyme fitness (log ratio), ≤ -4.2:
G50C C96G U144C
G50C C96U U134A
G50C C99G U148A
G50C C99U
G50C C103G U104A C105G A107U
G50C C131G
G50C G58C G70A C85G C87U G140U
G50C G58U C63U C76A G92A C149G
G50C G59A A107C U134A G140U
G50C G59A U90A A150G
G50C G59C G62A G68C C95U U148C
G50C G62A C93U G140C A147C
G50C G65C G67C
G50C G65C G67U C85A G86A A91C U134G G143U
G50C G67A U90G A142G
G50C G67C G68C
G50C G68A A91U C96G G100A G124C G141C
G50C G68A A121G
G50C G68A A142U
G50C G68A C72G C76U C93U C131U G141C
G50C G70A A89U A120G A121G
G50C G70C
G50C G71A C95U G117C G143A
G50C G71C
G50C G74A C87U C116A
G50C G74C A120G G124U G126A
G50C G74U C87U
G50C G80A C96U C116A U127C U135G
G50C G80C C85A C95A G143U U148C
G50C G80C C93A A98U
G50C G81C C93G C95U A110C
G50C G81C C96G C99G
G50C G84U U148A
G50C G86A C103G G124U C125U G126C
G50C G86A G88U C125G G133C G141A
G50C G86C C103A G143C
G50C G140U
G50C U53A C63G G88U A110U U144G
G50C U53G C85A G94C C95A U135A G152A
G50C U53G C95A A120C
G50C U55A C96G A107C
G50C U55A U111G
G50C U55G G94A A106C U134A
G50C U56A G62C C72U C95U A142C
G50C U56A U90C C95U U104C U109C C114U C118U C129U
G50C U56C C87G A89C G100C A120G C125U
G50C U61A G88A C99G U135C U146C
G50C U77G A106U
G50C U77G C93G
G50C U82A G83C
G50C U82G G88C
G50C U82G G92C U102G U139G
G50C U90A
G50C U90C U104G
G50C U102G U127C U135C
G50U A52C A107G
G50U A52G C85A U109A G143U
G50U A60C C93G C95A
G50U A60G C79G U139G U144C
G50U A60U C76A G80U U101G A107U
G50U A60U G86U A106U
G50U A64C C93U A97U G136C
G50U A66C C69U A73C
G50U A66C G71A G84U G136C U146G
G50U A66U C69G U135C
G50U A73G C95U U111C U135G G140U
G50U A91C A115G
G50U A107C C132A
G50U C51A C93A
G50U C51U C72U C93G U101C C108A G112U A113U A121G

Polymerase ribozyme fitness (log ratio), -2.31:
G50U A97U U102A G124A

Polymerase ribozyme fitness (log ratio), -4.1:
G50C U56A A73G C125A

Polymerase ribozyme fitness (log ratio), -1.56:
G50C G58A

Polymerase ribozyme fitness (log ratio), -3.65:
G50C G83A

Polymerase ribozyme fitness (log ratio), -2.92:
G50C U56A

Polymerase ribozyme fitness (log ratio), 0.264:
G50U A106G
